Data published in paper PMC4336329 (PLoS ONE, 2015).
Out of some 310,000 compounds screened, about 2,200 (0.71%) showed an effect of 50% or more. Effects have a minus sign here. The list shows a part of the results.

What follows are molecules tested against human ether-à-go-go-related gene (hERG) potassium channel (human, UniProt Q12809) (assay: primary screen, population patch clamp on CHO cells stably expressing hERG).
Chain of human ether-à-go-go-related gene (hERG) potassium channel (Q12809 whole entry, looked up): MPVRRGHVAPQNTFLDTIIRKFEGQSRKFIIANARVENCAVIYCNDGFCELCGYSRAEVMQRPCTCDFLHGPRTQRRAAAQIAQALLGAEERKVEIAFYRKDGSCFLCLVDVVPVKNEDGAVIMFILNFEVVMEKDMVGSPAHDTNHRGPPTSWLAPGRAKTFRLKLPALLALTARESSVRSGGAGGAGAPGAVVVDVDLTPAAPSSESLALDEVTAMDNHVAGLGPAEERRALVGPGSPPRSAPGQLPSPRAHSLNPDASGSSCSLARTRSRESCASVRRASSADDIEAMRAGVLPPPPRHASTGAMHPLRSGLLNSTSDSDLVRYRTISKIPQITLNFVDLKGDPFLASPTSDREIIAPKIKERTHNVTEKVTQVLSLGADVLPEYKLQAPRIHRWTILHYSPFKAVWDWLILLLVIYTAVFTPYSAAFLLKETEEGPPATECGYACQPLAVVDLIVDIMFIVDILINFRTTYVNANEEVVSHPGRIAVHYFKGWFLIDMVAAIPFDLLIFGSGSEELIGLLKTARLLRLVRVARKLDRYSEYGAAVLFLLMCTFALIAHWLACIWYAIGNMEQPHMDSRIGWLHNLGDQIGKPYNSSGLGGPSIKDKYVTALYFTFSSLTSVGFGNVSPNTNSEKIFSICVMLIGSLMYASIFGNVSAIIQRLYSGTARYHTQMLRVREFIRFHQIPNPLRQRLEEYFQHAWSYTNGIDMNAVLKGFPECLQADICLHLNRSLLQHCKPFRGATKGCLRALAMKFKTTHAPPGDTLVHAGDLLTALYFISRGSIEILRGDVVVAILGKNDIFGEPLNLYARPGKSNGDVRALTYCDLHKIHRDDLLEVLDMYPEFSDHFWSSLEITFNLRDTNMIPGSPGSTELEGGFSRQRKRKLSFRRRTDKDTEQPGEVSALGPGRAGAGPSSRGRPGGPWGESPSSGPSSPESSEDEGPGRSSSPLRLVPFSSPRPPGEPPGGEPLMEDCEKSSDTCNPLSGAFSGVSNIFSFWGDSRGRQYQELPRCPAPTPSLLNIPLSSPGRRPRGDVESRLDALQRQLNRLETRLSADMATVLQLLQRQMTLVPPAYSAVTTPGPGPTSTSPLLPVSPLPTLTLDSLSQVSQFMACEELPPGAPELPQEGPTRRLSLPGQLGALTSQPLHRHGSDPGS

| Compound | hERG current change (%, negative = inhibition) at 1uM |
| --- | --- |
| O=C(CCNC(=O)c1ccc(Cl)cc1)NCCCN1CCOCC1 | 9.09% |
| Cc1ccccc1C(=O)N1CCC(n2nccc2NC(=O)CCOc2ccccc2)CC1 | 15.1% |
| O=C(NC1CCS(=O)(=O)C1)c1cccc(S(=O)(=O)N2CCOCC2)c1 (stereo not drawn) | 10.3% |
| CCC(=O)OC1(c2ccccc2)CCN(C)CC1C.Cl (stereo not drawn) | 9.74% |
| O=C(Nc1ccc(N2CCCCC2)cc1)c1cccnc1Cl | 13% |
| CC1CCCCN1C(=O)CCS(=O)(=O)Cc1ccccc1 (stereo not drawn) | 12.5% |
| Cc1ccc(-c2nc(NC(=O)CSc3nnnn3-c3ccccc3)ns2)cc1 | 14.9% |
| CC(C)(CO)NC(=O)CCCOc1ccc(Cl)cc1Cl | 2.23% |
| Cc1onc(-c2c(F)cccc2Cl)c1C(=O)NC(=S)NC1CCS(=O)(=O)C1 (stereo not drawn) | 6.22% |
| CC1Cc2ccccc2N1C(=O)CNc1ccccc1N1CCCCC1 (stereo not drawn) | 2.17% |
| COCC(=O)NC1CCN(CC(=O)Nc2ccccc2[N+](=O)[O-])CC1 | 9.62% |
| CCOc1nc(C)nc(NC(=O)NS(=O)(=O)c2ccccc2Cl)n1 | -0.0985% |
| CCc1sc(C(=O)N2CCC3(CC2)OCCO3)cc1Br | 10.7% |
| CN1C(=O)c2cccc(NC(=O)CCc3ccccc3)c2C1=O | 8.12% |
| O=C(O)c1cccc(-c2ccc(/C=C3/SC(=Nc4ccccc4)N(Cc4cccnc4)C3=O)o2)c1 | 14% |
| COc1c(C(=O)NCCSC(C)(C)C)ccc2ccccc12 | -6.1% |
| COc1ccc(-c2cc(C)nc(SCc3cccc(C(=O)O)c3)n2)cc1 | 0.72% |
| Cc1ccc(Cl)c(OCC(=O)Nc2ccccc2N2CCCCC2)c1 | 9.71% |
| COc1ccc(NC(=O)c2ccc(-n3cnnn3)cc2)c([N+](=O)[O-])c1 | 11.3% |
| N#Cc1ccsc1NC(=O)COC(=O)c1cc2ccccc2cc1O | 13.7% |
| COc1ccc(NC(=O)NCc2ccc3c(c2)OCO3)c(OC)c1 | 9.02% |
| Nc1c(N(Cc2ccco2)C(=O)COc2ccccc2)c(=O)[nH]c(=O)n1Cc1ccccc1 | 10.6% |
| CCS(=O)(=O)c1nc(S(=O)(=O)c2ccc(C)cc2)c(N2CCCC2)s1 | 11.8% |

| Compound | hERG current change (%, negative = inhibition) at 1uM |
| --- | --- |
| Cc1ccc(/C=C/C(=O)N2CCc3ccccc3C2)cc1 | -4.77% |
| O=C(COc1ncnc2ccccc12)Nc1cccc(S(=O)(=O)N2CCOCC2)c1 | 0.89% |
| CC1CCC2(CC1)NC(=O)N(Cc1nc(-c3ccccc3)no1)C2=O (stereo not drawn) | 2.98% |
| CCOC(=O)Cc1csc(SCc2nc3sc4c(c3c(=O)[nH]2)CCC4)n1 | 11.4% |
| COCCn1c(C)cc(C(=O)CSc2n[nH]c(N)n2)c1C | 20.6% |
| CC(/C=N/NC(=O)Cn1cnc2c1c(=O)n(C)c(=O)n2C)=C\c1ccccc1 | 4.71% |
| Cl.c1ccc(Cn2nnnc2C(c2cccs2)N2CCOCC2)cc1 (stereo not drawn) | 17.6% |
| Cn1ccs/c1=N\C(=O)Nc1cccc(Cl)c1 | 10.7% |
| COc1ccc(-c2cc(-c3cc(OC)ccc3O)[nH]n2)cc1 | 10.6% |
| CCN(Cc1ccccc1)C(=O)c1c(-c2ccccc2Cl)noc1C | 13% |
| CCCCNC(=O)Nc1cc(C)on1 | -5.96% |
| CC(C)CNC(=O)CSc1nnc(-c2ccccn2)n1Cc1ccccc1 | 7.89% |
| Cn1c(SCC(=O)NC2CCCCC2)nnc1-c1ccc(N)cc1 | 16.4% |
| OCCC1CN(Cc2cccn2-c2ncccn2)CCN1Cc1ccccc1 (stereo not drawn) | -33.4% |
| Nc1ccc(O)c(-c2nc3ccccc3s2)c1 | 9.02% |
| COCCCNCCOCCOc1ccccc1-c1ccccc1.O=C(O)C(=O)O | -8.87% |
| COc1ccc(CNc2nc3ccccc3n2Cc2ccc(C)cc2)cc1OC | 5.18% |
| Cc1cc(CN(C)C(=O)c2ccc(OC3CCN(Cc4ccccn4)CC3)cc2)on1 | -2.96% |
| CCOc1ccc(C2C(C#N)=C(N)Oc3nc[nH]c(=O)c32)cc1 (stereo not drawn) | 13.3% |
| CCN(CC(=O)NCc1ccc(F)cc1)CC(=O)Nc1ccccc1-c1ccccc1 | 0.673% |
| CCc1nc(N2CCN(Cc3ccc4c(c3)OCO4)CC2)c2oc3ccccc3c2n1.Cl | 7.93% |
| Cc1cc(C(=O)N(C)Cc2ccc(Br)cc2)no1 | 4.99% |
